# From the supplement of paper PMC8728848
# This is one part of the list.
# B1: Pwp3 (Candida glabrata) (protein)
# chain: MGSSHHHHHHSSGLVPRGSHMASKNPVDFTTVCQFPDNFSKKPGFLATTARLGLWITGNSYKELLNYPGTFTLTTQQASTTTPNIQLRGTDLFTTIYGLTVYPLYLLVELQGYFVPTQSGMYTFSLTGSDDAAIIFIGNPSTFPCDAFKTWPQATANDITVTDSINPSRTLYMVKGVAYPLRIAYYNGLGNGVLNAAFTDPSGTKRTDWNGYIWQYDQCSTCTYK
# What was measured:
# Experiment in all cases: glycan array binding signal (z-score within array); higher = stronger binding
# Settings in all cases: glycan notation: IUPAC condensed, linker removed
# [1] = target: Gal(a1-3)Gal(b1-4)GlcNAc(b1-2)Man
# Summary of the method: (§1)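 Glycan array binding is given as a within-array Z-score, which can be read as non-binding when negative. The arrays, 3228 of them, came from the Consortium for Functional Glycomics database and were retained only where the protein sequence was available. Z-scores were averaged across arrays of the same protein sequence at different concentrations or buffers and across linkers.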
# [2] = target: Gal(a1-3)Gal(b1-4)GlcNAc(b1-2)Man(a1-3)[Gal(a1-3)Gal(b1-4)GlcNAc(b1-2)Man(a1-6)]Man(b1-4)GlcNAc(b1-4)GlcNAc
# Summary of the method: as §1
# [3] = target: Gal(a1-3)Gal(b1-4)GlcNAc(b1-3)GalNAc
# Summary of the method: as §1
# [4] = target: Gal(a1-3)Gal(b1-4)GlcNAc(b1-6)GalNAc
# Summary of the method: as §1
# [5] = target: Gal(a1-3)Gal(b1-4)[Fuc(a1-3)]GlcNAc
# Summary of the method: as §1
# [6] = target: Gal(a1-3)Gal(b1-4)[Fuc(a1-3)]GlcNAc(b1-2)Man(a1-3)[Gal(a1-3)Gal(b1-4)[Fuc(a1-3)]GlcNAc(b1-2)Man(a1-6)]Man(b1-4)GlcNAc(b1-4)GlcNAc
# Summary of the method: as §1
# Gal(a1-3)GalNAc = target: Gal(a1-3)GalNAc
# Summary of the method: as §1
# [7] = target: Gal(a1-3)[Gal(a1-4)]Gal(b1-4)GlcNAc
# Summary of the method: as §1
# [8] = target: Gal(a1-4)Gal(b1-3)GlcNAc(b1-2)Man(a1-3)[Gal(a1-4)Gal(b1-3)GlcNAc(b1-2)Man(a1-6)]Man(b1-4)GlcNAc(b1-4)GlcNAc
# Summary of the method: as §1
# Gal(a1-4)Gal(b1-4)Glc = target: Gal(a1-4)Gal(b1-4)Glc
# Summary of the method: as §1
# Gal(a1-4)Gal(b1-4)GlcNAc = target: Gal(a1-4)Gal(b1-4)GlcNAc
# Summary of the method: as §1
# [9] = target: Gal(a1-4)Gal(b1-4)GlcNAc(b1-2)Man(a1-3)[Gal(a1-4)Gal(b1-4)GlcNAc(b1-2)Man(a1-6)]Man(b1-4)GlcNAc(b1-4)GlcNAc
# Summary of the method: as §1
# [10] = target: Gal(a1-4)Gal(b1-4)GlcNAc(b1-3)Gal(b1-4)Glc
# Summary of the method: as §1
# Gal(a1-4)GlcNAc = target: Gal(a1-4)GlcNAc
# Summary of the method: as §1
# Gal(a1-6)Glc = target: Gal(a1-6)Glc
# Summary of the method: as §1
# Gal(b1-2)Gal = target: Gal(b1-2)Gal
# Summary of the method: as §1
# Gal(b1-3)Gal = target: Gal(b1-3)Gal
# Summary of the method: as §1
# Gal(b1-3)Gal(b1-4)GlcNAc = target: Gal(b1-3)Gal(b1-4)GlcNAc
# Summary of the method: as §1
# Gal(b1-3)GalNAc = target: Gal(b1-3)GalNAc
# Summary of the method: as §1
# [11] = target: Gal(b1-3)GalNAc(a1-3)[Fuc(a1-2)]Gal(b1-4)Glc
# Summary of the method: as §1
# [12] = target: Gal(b1-3)GalNAc(a1-3)[Fuc(a1-2)]Gal(b1-4)GlcNAc
# Summary of the method: as §1
# Gal(b1-3)GalNAc(b1-3)Gal = target: Gal(b1-3)GalNAc(b1-3)Gal
# Summary of the method: as §1
# [13] = target: Gal(b1-3)GalNAc(b1-3)Gal(a1-4)Gal(b1-4)Glc
# Summary of the method: as §1
# [14] = target: Gal(b1-3)GalNAc(b1-4)Gal(b1-4)Glc
# Summary of the method: as §1
# [15] = target: Gal(b1-3)GalNAc(b1-4)[Neu5Ac(a2-3)]Gal(b1-4)Glc
# Summary of the method: as §1
# Gal(b1-3)GlcNAc = target: Gal(b1-3)GlcNAc
# Summary of the method: as §1
# [16] = target: Gal(b1-3)GlcNAc(a1-3)Gal(b1-4)GlcNAc
# Summary of the method: as §1
# [17] = target: Gal(b1-3)GlcNAc(a1-6)Gal(b1-4)GlcNAc
# Summary of the method: as §1
# Gal(b1-3)GlcNAc(b1-2)Man = target: Gal(b1-3)GlcNAc(b1-2)Man
# Summary of the method: as §1
# [18] = target: Gal(b1-3)GlcNAc(b1-2)Man(a1-3)[Gal(b1-3)GlcNAc(b1-2)Man(a1-6)]Man(b1-4)GlcNAc(b1-4)GlcNAc
# Summary of the method: as §1
# [19] = target: Gal(b1-3)GlcNAc(b1-2)Man(a1-3)[Gal(b1-3)GlcNAc(b1-2)Man(a1-6)]Man(b1-4)GlcNAc(b1-4)[Fuc(a1-6)]GlcNAc
# Summary of the method: as §1
# [20] = target: Gal(b1-3)GlcNAc(b1-2)Man(a1-3)[GlcNAc(b1-4)][Gal(b1-3)GlcNAc(b1-2)Man(a1-6)]Man(b1-4)GlcNAc(b1-4)GlcNAc
# Summary of the method: as §1
# [21] = target: Gal(b1-3)GlcNAc(b1-2)[Gal(b1-3)GlcNAc(b1-6)]Man(a1-6)[Gal(b1-3)GlcNAc(b1-2)Man(a1-3)]Man(b1-4)GlcNAc(b1-4)GlcNAc
# Summary of the method: as §1
# [22] = target: Gal(b1-3)GlcNAc(b1-3)Gal(b1-3)GlcNAc
# Summary of the method: as §1
# [23] = target: Gal(b1-3)GlcNAc(b1-3)Gal(b1-4)Glc
# Summary of the method: as §1
# [24] = target: Gal(b1-3)GlcNAc(b1-3)Gal(b1-4)GlcNAc
# Summary of the method: as §1
# [25] = target: Gal(b1-3)GlcNAc(b1-3)Gal(b1-4)GlcNAc(b1-2)Man(a1-3)[Gal(b1-3)GlcNAc(b1-3)Gal(b1-4)GlcNAc(b1-2)Man(a1-6)]Man(b1-4)GlcNAc(b1-4)GlcNAc
# Summary of the method: as §1
# [26] = target: Gal(b1-3)GlcNAc(b1-3)Gal(b1-4)GlcNAc(b1-2)[Gal(b1-3)GlcNAc(b1-3)Gal(b1-4)GlcNAc(b1-6)]Man(a1-6)[Gal(b1-3)GlcNAc(b1-3)Gal(b1-4)GlcNAc(b1-2)Man(a1-3)]Man(b1-4)GlcNAc(b1-4)[Fuc(a1-6)]GlcNAc
# Summary of the method: as §1
# [27] = target: Gal(b1-3)GlcNAc(b1-3)Gal(b1-4)GlcNAc(b1-3)Gal(b1-4)GlcNAc(b1-2)[Gal(b1-3)GlcNAc(b1-3)Gal(b1-4)GlcNAc(b1-3)Gal(b1-4)GlcNAc(b1-6)]Man(a1-6)[Gal(b1-3)GlcNAc(b1-3)Gal(b1-4)GlcNAc(b1-3)Gal(b1-4)GlcNAc(b1-2)Man(a1-3)]Man(b1-4)GlcNAc(b1-4)[Fuc(a1-6)]GlcNAc
# Summary of the method: as §1
# [28] = target: Gal(b1-3)GlcNAc(b1-3)Gal(b1-4)GlcNAc(b1-6)[Gal(b1-3)GlcNAc(b1-3)]Gal(b1-4)Glc
# Summary of the method: as §1
# [29] = target: Gal(b1-3)GlcNAc(b1-3)Gal(b1-4)[Fuc(a1-3)]GlcNAc
# Summary of the method: as §1
# [30] = target: Gal(b1-3)GlcNAc(b1-3)Gal(b1-4)[Fuc(a1-3)]GlcNAc(b1-6)[Gal(b1-3)GlcNAc(b1-3)]Gal(b1-4)Glc
# Summary of the method: as §1
# [31] = target: Gal(b1-3)GlcNAc(b1-3)GalNAc
# Summary of the method: as §1
# [32] = target: Gal(b1-3)GlcNAc(b1-6)Gal(b1-4)GlcNAc
# Summary of the method: as §1
# [33] = target: Gal(b1-3)GlcNAc(b1-6)GalNAc
# Summary of the method: as §1
binder,measurement,setting,value
B1,glycan array binding signal (z-score),[1],-0.239
same,glycan array binding signal (z-score),[2],-0.338
same,glycan array binding signal (z-score),[3],-0.598
same,glycan array binding signal (z-score),[4],-0.329
same,glycan array binding signal (z-score),[5],-0.365
same,glycan array binding signal (z-score),[6],-0.483
same,glycan array binding signal (z-score),Gal(a1-3)GalNAc,-0.265
same,glycan array binding signal (z-score),[7],-0.87
same,glycan array binding signal (z-score),[8],0.962
same,glycan array binding signal (z-score),Gal(a1-4)Gal(b1-4)Glc,-0.579
same,glycan array binding signal (z-score),Gal(a1-4)Gal(b1-4)GlcNAc,-0.193
same,glycan array binding signal (z-score),[9],-0.343
same,glycan array binding signal (z-score),[10],-0.304
same,glycan array binding signal (z-score),Gal(a1-4)GlcNAc,-0.186
same,glycan array binding signal (z-score),Gal(a1-6)Glc,-0.257
same,glycan array binding signal (z-score),Gal(b1-2)Gal,0.009
same,glycan array binding signal (z-score),Gal(b1-3)Gal,-0.24
same,glycan array binding signal (z-score),Gal(b1-3)Gal(b1-4)GlcNAc,0.839
same,glycan array binding signal (z-score),Gal(b1-3)GalNAc,-0.038
same,glycan array binding signal (z-score),[11],-0.467
same,glycan array binding signal (z-score),[12],2.05
same,glycan array binding signal (z-score),Gal(b1-3)GalNAc(b1-3)Gal,-0.157
same,glycan array binding signal (z-score),[13],-0.23
same,glycan array binding signal (z-score),[14],4.7
same,glycan array binding signal (z-score),[15],-0.28
same,glycan array binding signal (z-score),Gal(b1-3)GlcNAc,-0.176
same,glycan array binding signal (z-score),[16],0.478
same,glycan array binding signal (z-score),[17],3.24
same,glycan array binding signal (z-score),Gal(b1-3)GlcNAc(b1-2)Man,-0.295
same,glycan array binding signal (z-score),[18],-0.826
same,glycan array binding signal (z-score),[19],-0.435
same,glycan array binding signal (z-score),[20],-0.415
same,glycan array binding signal (z-score),[21],-0.547
same,glycan array binding signal (z-score),[22],0.247
same,glycan array binding signal (z-score),[23],-0.308
same,glycan array binding signal (z-score),[24],-0.118
same,glycan array binding signal (z-score),[25],-0.92
same,glycan array binding signal (z-score),[26],-0.274
same,glycan array binding signal (z-score),[27],0.588
same,glycan array binding signal (z-score),[28],-0.347
same,glycan array binding signal (z-score),[29],-0.318
same,glycan array binding signal (z-score),[30],-0.145
same,glycan array binding signal (z-score),[31],-0.621
same,glycan array binding signal (z-score),[32],-0.389
same,glycan array binding signal (z-score),[33],1.24
